These results are taken from paper PMC4336329 (PLoS ONE, 2015).

Among all 310,000 compounds or so, about 2,200 (0.71%) showed an effect of 50% or more. The effect is printed as a negative number. The list shows a part of the results.

Chain of human ether-à-go-go-related gene (hERG) potassium channel (Q12809 whole entry, looked up): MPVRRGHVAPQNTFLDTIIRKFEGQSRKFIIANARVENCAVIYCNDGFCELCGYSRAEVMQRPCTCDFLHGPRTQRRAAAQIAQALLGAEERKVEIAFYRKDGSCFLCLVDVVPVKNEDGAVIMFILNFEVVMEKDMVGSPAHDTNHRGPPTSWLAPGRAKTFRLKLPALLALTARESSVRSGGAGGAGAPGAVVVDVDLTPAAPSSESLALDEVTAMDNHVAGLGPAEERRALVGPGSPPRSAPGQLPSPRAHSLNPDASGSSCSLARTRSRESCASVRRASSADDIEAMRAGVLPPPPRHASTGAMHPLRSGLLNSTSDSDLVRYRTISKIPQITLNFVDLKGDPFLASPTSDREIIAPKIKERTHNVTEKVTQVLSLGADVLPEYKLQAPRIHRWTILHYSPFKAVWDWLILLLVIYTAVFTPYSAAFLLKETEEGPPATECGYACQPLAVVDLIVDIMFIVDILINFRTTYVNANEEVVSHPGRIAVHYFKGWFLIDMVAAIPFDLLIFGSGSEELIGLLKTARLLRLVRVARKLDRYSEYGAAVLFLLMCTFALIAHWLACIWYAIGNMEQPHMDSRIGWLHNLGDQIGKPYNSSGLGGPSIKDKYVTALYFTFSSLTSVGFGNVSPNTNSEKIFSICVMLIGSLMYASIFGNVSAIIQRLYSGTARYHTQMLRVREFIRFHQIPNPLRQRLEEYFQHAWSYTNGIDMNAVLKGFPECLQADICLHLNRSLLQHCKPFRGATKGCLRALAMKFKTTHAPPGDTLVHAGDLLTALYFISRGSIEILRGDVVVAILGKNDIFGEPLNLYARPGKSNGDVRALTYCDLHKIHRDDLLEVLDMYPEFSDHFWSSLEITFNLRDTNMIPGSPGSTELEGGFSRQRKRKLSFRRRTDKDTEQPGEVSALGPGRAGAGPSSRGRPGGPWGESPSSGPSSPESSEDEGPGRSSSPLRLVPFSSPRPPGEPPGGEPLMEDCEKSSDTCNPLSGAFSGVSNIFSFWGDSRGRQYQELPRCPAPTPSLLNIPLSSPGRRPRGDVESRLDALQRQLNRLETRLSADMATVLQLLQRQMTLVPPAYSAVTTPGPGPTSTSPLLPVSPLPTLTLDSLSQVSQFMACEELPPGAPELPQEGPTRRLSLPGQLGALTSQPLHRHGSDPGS

The test concerns the target human ether-à-go-go-related gene (hERG) potassium channel (human, UniProt Q12809). The test can be described thus: primary screen, population patch clamp on CHO cells stably expressing hERG.
For `CNC(=S)N1CCc2ccccc2C1`, the “hERG current change (%, negative = inhibition) at 1uM” value is 2.88%. With `Cc1ccc(SCC2(O)CCN(S(=O)(=O)c3ccc(Cl)cc3)CC2)cc1` the figure was 10.5%. With `COc1cccc(-c2nc(CS(=O)(=O)c3ccccc3)no2)c1` the figure was 4.89%; with `CC(=O)N(c1ccc(N(C(C)=O)S(=O)(=O)c2cccs2)cc1)S(=O)(=O)c1cccs1`, -3.17%; with `CCCc1c(C)nc(SCC(=O)C(C)(C)C)nc1OC(=O)N(C)C`, 4.84%. On to `COc1cc(/C=C/C(=O)O)ccc1OS(=O)(=O)c1cc(Br)ccc1C`, for which the “hERG current change (%, negative = inhibition) at 1uM” value was 5.12%. With `C#CCOc1ccc(C2C(C#N)=C(N)Oc3cc(O)ccc32)cc1` (stereo not shown) the figure was 11.8%; with `COc1ccc(C2CC(c3ccccc3)=NN2C(=O)CSc2nccc(=O)[nH]2)cc1` (stereo not shown), 3.56%. The same measure for `Cc1cc(C(=O)Nc2ccc3c(c2)OCCO3)ccc1[N+](=O)[O-]`: 14.5%. With `CC1(C(=O)NCCOc2ccccc2Cl)CC1(Cl)Cl` (stereo not shown) the figure was 9.93%; with `COc1cc(NS(=O)(=O)c2ccc(N/C=C\C(=O)c3ccc(C)cc3)cc2)nc(OC)n1`, 4.13%.

`CCOCCn1c(=NC(=O)CSCC(=O)N2CCOCC2)sc2cc(OC)ccc21`: the “hERG current change (%, negative = inhibition) at 1uM” value was 2.13%.

As to `O=[N+]([O-])c1ccccc1S(=O)(=O)Oc1ccc(C(=S)N2CCOCC2)cc1`, the “hERG current change (%, negative = inhibition) at 1uM” value was -15.3%. For `COc1cc(S(=O)(=O)Nc2c(C)cc(C)cc2C)ccc1Cl`, the “hERG current change (%, negative = inhibition) at 1uM” value was 13.4%. The same measure for `Cc1cc(C)cc(N(CC(=O)NCc2ccccc2)C(=O)CCC(=O)Nc2ccccn2)c1`: 23.2%. With `O=c1cc(-c2ccc([N+](=O)[O-])cc2)c2cc3c(cc2[nH]1)OCCO3` the figure was 9.87%; with `Cc1ccc(N2CCN(/N=C/c3ccccc3[N+](=O)[O-])CC2)cc1`, 4.87%; with `O=C1OCCC1Sc1nnc(-c2ccc(F)cc2)n1Cc1ccccc1` (stereo not shown), 3.07%. With `Cl.OC(COCc1ccc2c(c1)OCO2)CN1CCN(Cc2ccccc2)CC1` (stereo not shown) the figure was -8.65%.

In the case of `CC1Cc2ccccc2N1C1=CC(=O)CC(C)(C)C1` (stereo not shown), the “hERG current change (%, negative = inhibition) at 1uM” value is reported as 7.36%.

Consider `CN(C)C(=O)c1cn(-c2ccccc2)nc1-c1cccs1`, for which the “hERG current change (%, negative = inhibition) at 1uM” value was determined as 4.9%. The same measure for `COc1ccc(Nc2nc(C(=O)NCCCN3CCOCC3)cs2)cc1`: 6.01%; for `O=C(COC(=O)c1c(F)cccc1F)Nc1ccc2[nH]c(=O)[nH]c2c1`: 12.3%. With `Cc1sc(NC(=O)c2ccco2)c(C(=O)c2ccc(Cl)cc2)c1C` the figure was 21.6%; with `CC(C)(C)c1cnnn1-c1ccc(/C=N/Nc2ccc([N+](=O)[O-])cc2)cc1`, 12%. The same measure for `CCOC(=O)N1CCN(Cc2cc(=O)oc3cc4c(cc23)CCC4)CC1`: -3.49%. With `CCOC(=O)N1CCN(C2OC(=O)c3ccccc32)CC1` (stereo not shown), the “hERG current change (%, negative = inhibition) at 1uM” value was found to be 17.7%. With `Cc1cc(-c2ccn[nH]2)c(C)s1` the figure was 11.4%; with `c1ccc2nc(N3CCOCC3)cnc2c1`, -0.824%; with `O=C(CNC(=O)c1ccc(F)cc1)c1ccccc1`, 6.52%. With `COC(=O)c1cccc(C(=O)Nc2ccc(F)cc2)n1` the figure was 7.33%; with `Nc1cc(=O)[nH]c(SCC(=O)Nc2nnc(-c3ccccc3)s2)n1`, 19.8%. `CC(=O)Nc1ccc(S(=O)(=O)N2CCN(C(=O)c3ncoc3-c3ccccc3C)CC2)cc1`: the “hERG current change (%, negative = inhibition) at 1uM” value amounted to 18.8%. The same measure for `N#CCn1c(Cc2ccccc2)nc2ccccc2c1=O`: 12.2%; for `O=S(=O)(Nc1ccc2c(c1)nc1n2CCN(Cc2ccccc2)C1)c1ccccc1`: 0.0679%; for `CCOc1ccc(NC(=O)CCNS(=O)(=O)c2cccs2)cc1`: 8.21%. Take `COc1cc(Br)c(C(C)NC(=O)c2ccc(C)cc2)cc1OC` (stereo not shown): the “hERG current change (%, negative = inhibition) at 1uM” value stood at 6.82%. For the compound `c1coc(-c2nc3ccccc3nc2-c2ccco2)c1`, the “hERG current change (%, negative = inhibition) at 1uM” value is 6.35%.

`Cc1ccc(S(=O)(=O)N2CCN(C(=O)c3ccco3)CC2)c(C)c1`: the “hERG current change (%, negative = inhibition) at 1uM” value came out at 2.97%. With `C1CCN(c2c3c(nc4nnnn24)CCCC3)CC1` the figure was 11.1%; with `O=C(Cn1c(=O)oc2ccccc21)N1CCN(S(=O)(=O)c2ccccc2)CC1`, -4.15%; with `O=C(NNC(=O)C1CC=CCC1)c1ccccc1Cl` (stereo not shown), 14.4%. With `COc1cccc(S(=O)(=O)Nc2cccc(C(=O)N3CCOCC3)c2)c1` the figure was 9.01%; with `CCC(Oc1ccccc1)C(=O)Nc1nnc(C)s1` (stereo not shown), -15.7%.

Regarding `CCCCn1c(N)c(N(CC)C(=O)c2ccncc2)c(=O)[nH]c1=O`, the “hERG current change (%, negative = inhibition) at 1uM” value is reported as 9.26%.

For the compound `CCc1ncc(C(O)c2cccc3ccccc23)n1C` (stereo not shown), the “hERG current change (%, negative = inhibition) at 1uM” value was 9.12%. For `COc1cc(/C=C(\C#N)c2ccccn2)ccc1OCc1ccc(Cl)cc1`, the “hERG current change (%, negative = inhibition) at 1uM” value came to 1.98%. The same measure for `O=C(Nc1ccccc1F)c1ccc(CN2CCN(c3ccccc3)CC2)cc1`: -31%.

On to `O=S(=O)(NCc1csc(-c2cccnc2)n1)c1ccc(Br)cc1`, for which the “hERG current change (%, negative = inhibition) at 1uM” value is reported as 38.3%.

For `Cc1c(C(=O)O)sc2nc(C)n(C)c(=O)c12`, the “hERG current change (%, negative = inhibition) at 1uM” value came to 2.9%. Take `COc1cccc2cc(C(C)N(CCCN3CCOCC3)C(=S)Nc3cccc(C)c3C)oc12` (stereo not shown): the “hERG current change (%, negative = inhibition) at 1uM” value was found to be 7.83%. With `COc1ccc(CN(C)C(=O)c2ccncc2)c(OC)c1` the figure was -1.92%; with `CCN(C(=O)CSc1nnc2nc(C)cc(C)n12)c1ccccc1`, 6.97%.

On to `COc1ccc(NC(C)=O)cc1CNC(=O)CN1CCOCC1`, for which the “hERG current change (%, negative = inhibition) at 1uM” value is given as 13.7%.

Turning to `CN(CC(=O)Nc1ccccc1C(F)(F)F)C(=O)COc1ncnc2ccccc12`, the “hERG current change (%, negative = inhibition) at 1uM” value worked out at 6.86%. With `Cc1ccc(S(=O)(=O)N(CC(=O)NC2CCCCCC2)c2ccccc2F)cc1` the figure was 2.82%; with `COc1cc(/C=C2\SC(=S)N(NC(=O)c3cccc(O)c3)C2=O)ccc1O`, 12.9%; with `COc1ccc(NC(=S)Nc2cccc(C(F)(F)F)c2)c(C)c1`, 0.354%.
